Laboratory results published in PubChem BioAssay AID485364 (National Center for Advancing Translational Sciences (NCATS), 2010).
Several values for one entry are separate records, joined by “and”; a condition that tells them apart may be missing. Identical values can stand only once. Out of some 360,000 compounds screened, about 11,000 (3.1%) were called active. The inconclusive results got no clear call from the source; some entries with a clear call stand among them for comparison. Calls follow the shape of the dose curve; as a rule, active = well fitted inhibition curve with a large enough effect; inconclusive = small, poorly fitted or top-dose-only effect; inactive = no such curve, though single readings can be large or run the other way. Where the call is inconclusive, the potency comes from a doubtful curve fit. More than one record can exist for a structure, and the calls need not agree.

target: Schistosoma mansoni thioredoxin glutathione reductase (TGR) (UniProt Q962Y6); test: qHTS Assay for the Inhibitors of Schistosoma Mansoni Peroxiredoxins; conditions: purified TGR, DTNB reduction, TNB absorbance 405 nm; series mostly up to 114 µM; also: nearly all actives have a fitted effect of over 60% in size
Method in brief: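 TGR 20 nM + NADPH 100 uM (dispensed conc.), cpd preinc 15 min RT; start with NADPH (500 uM addition) then DTNB (15 mM addition). Kinetic TNB absorbance, 405 nm filter. Four-parameter Hill fit across titration.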
Potency is read from the fitted curve at half-maximal effect; tags tell the direction and shape of the fitted curve.

SMILES | Potency
Cc1cc(NC(=S)NC(=O)c2ccco2)c2ccccc2n1 | inconclusive: 20 µM [inhibitor, full curve]
COc1ccc(C(=O)NC(=S)NCc2ccco2)cc1 | active: 7.08 µM
CCOC(=O)c1c(NC(=O)COc2ccc(C)cc2C(C)(C)C)sc2c1CCC(C)C2 (centres undefined) | inactive
CC(C)(C)c1cc(CN(CCO)CCO)cc(C(C)(C)C)c1O | inconclusive: 0.398 µM [inhibitor, full curve, poor fit]
O=C(Cn1ncc2c3ccccc3n(Cc3ccccc3)c2c1=O)NCc1ccco1 | inconclusive: 50.1 µM [inhibitor, partial curve]
O=S(=O)(c1ccc(Cl)c(NC(=S)Nc2ccccc2N2CCOCC2)c1)N1CCOCC1 | active: 35.5 µM
CC(C)OP(=O)(OC(C)C)C(NC(=O)c1cccc([N+](=O)[O-])c1)C(N)=O (centres undefined) | inconclusive: 0.141 µM [inhibitor, full curve, poor fit]
CCOc1cc(-c2ccc(OC(=O)c3ccc(OC)cc3)c(OC)c2)cc(=O)c2c(C)oc(C)c12 | inconclusive: 50.1 µM [inhibitor, partial curve]
O=C(NCCc1c[nH]c2ccccc12)OCCSS(=O)(=O)O | inactive
O=C(c1ccc([N+](=O)[O-])s1)N1CCc2ccccc2C1 | inconclusive: 39.8 µM [inhibitor, partial curve]
O=S(=O)(c1ccc2ccccc2c1)N1CCc2ccccc21 | inconclusive: 89.1 µM [inhibitor, single point]
CN(c1ccc(C(=O)Nc2ccc(S(=O)(=O)N3CCCC3)cc2)cc1)S(C)(=O)=O | inactive
CCCC(=O)NC(=S)Nc1ccc(N2CCOCC2)c(Cl)c1 | inactive
Nn1c(SCC(=O)N2CCOCC2)nnc1-c1ccco1 | inconclusive: 0.447 µM [inhibitor, full curve, poor fit]
c1ccc(C2CCC3(CC2)Oc2ccccc2C2CC(c4cccnc4)=NN23)cc1 (centres undefined) | inconclusive: 56.2 µM [inhibitor, partial curve]
C=C(Cl)COC(=O)[C@H]1C2C=CC(C2)C1C(=O)O (some centres undefined) | inconclusive: 63.1 µM [inhibitor, partial curve, poor fit]
C=CCn1c(-c2ccc(OC)cc2)nc2nc3ccccc3nc21 | inactive
CC(C)C(C(=O)NCC1CCCO1)N(Cc1ccco1)C(=O)CNS(=O)(=O)c1ccccc1 (centres undefined) | inconclusive: 1.12 µM [inhibitor, full curve]
Cc1cnc(C(=O)OCC(=O)Nc2ccc(Cl)cc2Cl)cn1 | inactive
CC1(C)NC(=O)N(CC(=O)OCC(=O)Nc2cc(S(=O)(=O)N3CCCCC3)ccc2Cl)C1=O | inconclusive: 56.2 µM [inhibitor, partial curve]
COc1ccc(NS(=O)(=O)c2cc(NC(=O)c3cccnc3Cl)ccc2N2CCCC2)cc1 | inconclusive: 44.7 µM [inhibitor, partial curve]
Cc1occc1C(=O)NNC(=S)NCc1ccc(Cl)cc1 | inactive
Cc1ccc(CSCCC(=O)NCc2ccc(F)cc2Cl)cc1 | inconclusive: 31.6 µM [inhibitor, partial curve]

SMILES | Potency
Cc1cc(/C=C2\SC(=S)N(C)C2=O)c(C)n1-c1ccc(O)cc1 | inconclusive: 39.8 µM [inhibitor, partial curve, poor fit]
O=c1oc2c3c(ccc2c2ccccc12)OCN(Cc1ccccc1Cl)C3 | inconclusive: 39.8 µM [inhibitor, single point]
CN1CCN(S(=O)(=O)c2ccc(Cc3ccc(S(=O)(=O)N4CCN(C)CC4)cc3)cc2)CC1 | inconclusive: 44.7 µM [inhibitor, partial curve]
COCCn1c(SCC(=O)NCCc2ccccc2)nnc1-c1ccco1 | inconclusive: 25.1 µM [inhibitor, full curve]
CC(C)c1ccccc1NC(=O)c1ccco1 | inconclusive: 39.8 µM [inhibitor, partial curve]
COc1ccc(-n2c(SCC(=O)c3ccccc3)nc3c([nH]c4ccccc43)c2=O)cc1 | inactive
CCOP(=O)(OCC)C(C#N)=C1SCN(c2ccc(Cl)cc2)CS1 | inconclusive: 15.8 µM [inhibitor, full curve]
CC(c1ccccc1)C1CC(=O)N(c2ccc([N+](=O)[O-])cc2)C1=O (centres undefined) | inconclusive: 35.5 µM [inhibitor, partial curve]
Cc1ccc(C)c(Cn2c(=O)n(C)c(=O)c3sccc32)c1 | inconclusive: 89.1 µM [inhibitor, single point]
COc1ccc(-c2[nH]ncc2CN(C)Cc2ccccn2)c(OC)c1 | inactive
C=CCN1C=C2C(=O)C(C)(OC(=O)C3CCCC3)C(=O)C(c3ccccc3)=C2C=C1CCCC(=O)OC (centres undefined) | inconclusive: 10 µM [inhibitor, partial curve]
NC(=O)c1cc2ccc(O)cc2oc1=Nc1ccccc1 | inactive
Cc1ccc2c(c1)CC1(CN2C)C(=O)NC(=O)N(c2cccc(C)c2C)C1=O (centres undefined) | inconclusive: 89.1 µM [inhibitor, single point]
Cc1ccnc2c1ccc1c(C)ccnc12 | inconclusive: 15.8 µM [inhibitor, full curve]
COC(=O)c1cc(CSc2nnc(NC3CCCCC3)s2)oc1C | active: 44.7 µM
COc1ccc(CCNC(=O)c2nc(-c3cccs3)no2)cc1OC | inactive
COc1ccc(NC(=O)N2CCOc3ccc(Cl)cc32)cc1 | inactive
CC(C)N1CCC(N2CCN(C3CCCCC3)CC2CCO)CC1 (centres undefined) | inconclusive: 50.1 µM [inhibitor, partial curve]
CCOC(=O)CC(=O)CSc1nc(C)cc(-c2cccnc2)c1C#N | inconclusive: 56.2 µM [inhibitor, partial curve]
O=C(NCCCN1CCN(Cc2ccccc2)CC1)c1nnc(Cc2c(F)cccc2Cl)o1 | inconclusive: 56.2 µM [inhibitor, partial curve, poor fit]
Cc1cc(C(=O)OCC(=O)NC(C)c2ccc(F)cc2)c(C)o1 (centres undefined) | inconclusive: 56.2 µM [inhibitor, partial curve]
COc1cc(/C=C2/N=C(C3CCCCC3)OC2=O)cc(OC)c1OC | inconclusive: 7.08 µM [inhibitor, full curve, poor fit]
Nc1ccc(N2CCCCC2)cc1N1CCCCC1 | inconclusive: 63.1 µM [inhibitor, partial curve, poor fit]

SMILES | Potency
Cn1c(O)c(Cc2cccc(Cl)c2Cl)c(=O)n(C)c1=O | inconclusive: 2.82 µM [inhibitor, partial curve, poor fit]
COc1ccc(-c2ccc(CCC(=O)O)n2-c2ccccc2O)cc1 | active: 28.2 µM
COc1ccc(N2C(=O)Cc3cc(OC)c(OC)cc3C2c2ccc(F)cc2)cc1 (centres undefined) | inactive
COC(=O)c1cc([N+](=O)[O-])c(-n2ccnc2)c([N+](=O)[O-])c1 | inconclusive: 79.4 µM [inhibitor, partial curve]
Cc1cc(Cn2nnnc2-c2ccncc2)cc(C)c1O | active: 2.51 µM
N#Cc1ccc(N2C(=O)[C@@H]3C(C(=O)c4cnccn4)=NN[C@@H]3C2=O)cc1 | active: 8.91 µM
O=C(CCl)Nc1nc(-c2ccco2)c(-c2ccco2)s1 | active: 0.398 µM
O=C(Cc1ccccc1Cl)Nc1cccc(S(=O)(=O)N2CCCCCC2)c1 | inconclusive: 89.1 µM [inhibitor, single point]
Cc1ccc(NC(=S)N2CCC(N(C)CC3CCCO3)CC2)cc1C (centres undefined) | inconclusive: 44.7 µM [inhibitor, partial curve]
CCOC(=O)c1cccc(NC(=O)C(CC(C)C)N2Cc3ccccc3C2=O)c1 (centres undefined) | inactive
CCC(NC(=O)Cc1cccs1)c1ccccc1 (centres undefined) | inactive
COc1ccc(C2Nc3ccccc3C(=O)N2Cc2ccco2)cc1CN1C(=O)c2ccccc2C1=O (centres undefined) | inconclusive: 39.8 µM [inhibitor, partial curve] and inconclusive: 44.7 µM [inhibitor, full curve]
CC(=O)Nc1ccc(/C=N/Nc2nc3ccccc3[nH]2)cc1 | inactive
CC(C)(C)[C@H](NC(=O)c1ccc(N)c(Cl)c1)C(=O)N1CCC[C@H]1C(=O)N[C@H](C#N)Cc1nn[nH]n1 | inconclusive: 44.7 µM [inhibitor, partial curve]
O=Nc1c(-c2cccc([N+](=O)[O-])c2)nc2ncccn12 | inconclusive: 56.2 µM [inhibitor, partial curve]
O=C(CSc1ccccn1)NCc1ccc2c(c1)OCO2 | inactive
Cc1c(Cl)cccc1NC(=O)CSc1nncn1-c1ccccn1 | inactive
CCCCCC(=O)N(O)C1CC(=O)N(c2ccccc2)C1=O (centres undefined) | inconclusive: 0.316 µM [inhibitor, full curve, poor fit]
CC1CCN(Cc2c(O)ccc3c2O/C(=C\c2ccco2)C3=O)CC1 | active: 1 µM
CC1=C(C)CC2C(=O)N(c3cccc4ccccc34)C(=O)C2C1 (centres undefined) | inconclusive: 2.24 µM [inhibitor, partial curve, poor fit]
Cc1cccc(NC(=O)C2CCCN(S(=O)(=O)c3cnc[nH]3)C2)c1C (centres undefined) | inconclusive: 39.8 µM [inhibitor, single point]
Cc1c(NC(NC(=O)CF)C(Cl)(Cl)Cl)c(=O)n(-c2ccccc2)n1C (centres undefined) | inconclusive: 50.1 µM [inhibitor, partial curve]
O=C(NCCc1ccc(Cl)cc1)c1ccc(CS(=O)Cc2cccc(Cl)c2)o1 (centres undefined) | inconclusive: 44.7 µM [inhibitor, partial curve]
